{"source": "paper PMC4336329", "about": "(PLoS ONE, 2015)", "note": "The whole screen tested about 310,000 compounds, of which about 2,200 (0.71%) showed an effect of 50% or more. Effects have a minus sign here. This is one part of the list."}
{"target": "human ether-à-go-go-related gene (hERG) potassium channel (human, UniProt Q12809)", "sequence (Q12809 whole entry, looked up)": "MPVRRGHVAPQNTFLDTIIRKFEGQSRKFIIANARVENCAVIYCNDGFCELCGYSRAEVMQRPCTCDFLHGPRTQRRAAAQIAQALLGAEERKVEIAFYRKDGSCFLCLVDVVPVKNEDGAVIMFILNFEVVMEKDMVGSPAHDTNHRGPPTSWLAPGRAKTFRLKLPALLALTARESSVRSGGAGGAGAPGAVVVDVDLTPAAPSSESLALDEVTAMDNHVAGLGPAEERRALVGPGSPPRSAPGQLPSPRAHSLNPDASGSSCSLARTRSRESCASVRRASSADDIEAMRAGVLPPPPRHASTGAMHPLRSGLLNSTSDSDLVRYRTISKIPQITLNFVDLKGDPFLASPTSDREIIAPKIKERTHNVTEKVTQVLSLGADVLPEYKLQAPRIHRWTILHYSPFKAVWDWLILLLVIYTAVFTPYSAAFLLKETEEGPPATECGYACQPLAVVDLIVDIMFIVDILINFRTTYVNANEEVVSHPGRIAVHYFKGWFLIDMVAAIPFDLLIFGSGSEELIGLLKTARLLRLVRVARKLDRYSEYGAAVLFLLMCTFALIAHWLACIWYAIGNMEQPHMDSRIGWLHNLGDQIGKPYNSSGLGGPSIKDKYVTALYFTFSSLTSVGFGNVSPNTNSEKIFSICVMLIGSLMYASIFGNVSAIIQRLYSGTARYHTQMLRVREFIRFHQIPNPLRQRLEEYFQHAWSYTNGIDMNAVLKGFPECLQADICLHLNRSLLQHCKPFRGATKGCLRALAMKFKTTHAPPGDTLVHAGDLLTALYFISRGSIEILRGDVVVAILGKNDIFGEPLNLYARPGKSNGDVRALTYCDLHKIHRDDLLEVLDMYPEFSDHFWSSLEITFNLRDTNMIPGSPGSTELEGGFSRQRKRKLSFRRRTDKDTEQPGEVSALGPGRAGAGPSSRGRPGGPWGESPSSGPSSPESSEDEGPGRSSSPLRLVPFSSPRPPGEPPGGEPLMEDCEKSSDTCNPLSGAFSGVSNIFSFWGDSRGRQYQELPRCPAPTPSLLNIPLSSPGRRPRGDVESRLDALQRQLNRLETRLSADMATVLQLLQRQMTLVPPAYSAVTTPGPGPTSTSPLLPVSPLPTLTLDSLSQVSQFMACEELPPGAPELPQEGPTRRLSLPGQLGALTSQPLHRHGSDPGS", "experiment": "primary screen, population patch clamp on CHO cells stably expressing hERG", "units": {"hERG current change (%, negative = inhibition) at 1uM": "%"}}
{"compound": "CCOC(=O)N1CCN(CCC(=O)Nc2cccc(Cl)c2C)CC1.Cl", "hERG current change (%, negative = inhibition) at 1uM": 13.8}
{"compound": "CCc1ccccc1OCC(=O)Nc1cccc(S(=O)(=O)NC2=NCCC2)c1", "hERG current change (%, negative = inhibition) at 1uM": 10.4}
{"compound": "O=C(CN(C(=O)c1ccc(Cl)cc1)N1C(=O)C2C3C=CC(C3)C2C1=O)c1cccs1", "note": "(stereo not drawn)", "hERG current change (%, negative = inhibition) at 1uM": 8.89}
{"compound": "Cc1ccc(C(=O)N2CCc3ccccc32)cc1", "hERG current change (%, negative = inhibition) at 1uM": 9.25}
{"compound": "COc1cc(C(=O)OC2C[C@H]3CC[C@@H](C2)N3C)ccc1O", "note": "(stereo partly drawn)", "hERG current change (%, negative = inhibition) at 1uM": 5.84}
{"compound": "CCNc1nc(C)c(CN(C(C)=O)c2ccccc2)nc1C#N", "hERG current change (%, negative = inhibition) at 1uM": 3.55}
{"compound": "O=C(O)CN1C(=O)CC(c2ccccc2)CC1=O", "hERG current change (%, negative = inhibition) at 1uM": 14.9}
{"compound": "CCn1nnnc1SCC(=O)NCc1ccco1", "hERG current change (%, negative = inhibition) at 1uM": 16.7}
{"compound": "CC1CCCC(C)N1S(=O)(=O)c1ccc(Cl)cc1", "note": "(stereo not drawn)", "hERG current change (%, negative = inhibition) at 1uM": 2.38}
{"compound": "CCOc1ccc(NC(=O)CN(C)C(=O)CCSc2ccc(F)cc2)cc1OCC", "hERG current change (%, negative = inhibition) at 1uM": 5.75}
{"compound": "O=S(=O)(Nc1cccc2nsnc12)c1ccccc1", "hERG current change (%, negative = inhibition) at 1uM": 5.89}
{"compound": "Cc1ccc(N/C=C/C(=O)c2ccco2)c(O)c1", "hERG current change (%, negative = inhibition) at 1uM": 13}
{"compound": "Cn1c(=O)c(S(=O)(=O)C(C)(C)C)c(O)c2ccccc21", "hERG current change (%, negative = inhibition) at 1uM": 9.76}
{"compound": "CSc1ncccc1C(=O)Nc1nnc(C2CC2)s1", "hERG current change (%, negative = inhibition) at 1uM": -0.0346}
{"compound": "CC(C)Cn1c(-c2ccc(Br)o2)n[nH]c1=S", "hERG current change (%, negative = inhibition) at 1uM": 9.1}
{"compound": "Cc1ccc2c(c1)C(c1ccccc1)=NCC(=O)N2", "hERG current change (%, negative = inhibition) at 1uM": 5.08}
{"compound": "COc1ccccc1Nc1nnc(SCC(=O)N2CC(=O)Nc3ccccc32)s1", "hERG current change (%, negative = inhibition) at 1uM": 9.13}
{"compound": "CCOc1ccc(C(=O)N2CCN(c3ccccc3)CC2)cc1OCC", "hERG current change (%, negative = inhibition) at 1uM": 1.55}
{"compound": "COc1ccc(CSc2nnnn2C)cc1F", "hERG current change (%, negative = inhibition) at 1uM": 4.32}
{"compound": "Cc1c(NS(=O)(=O)N2CCCC2)c(=O)n(-c2ccccc2)n1C", "hERG current change (%, negative = inhibition) at 1uM": 2.13}
{"compound": "O=C1OCC2=C1C(c1ccc(F)cc1)CC(=O)N2c1ccc(F)cc1", "note": "(stereo not drawn)", "hERG current change (%, negative = inhibition) at 1uM": 3.76}
{"compound": "O=C1CCC(c2ccccc2)N1C(=O)c1cccnc1", "note": "(stereo not drawn)", "hERG current change (%, negative = inhibition) at 1uM": -0.17}
{"compound": "O=C(NC1CCCCCCC1)C1c2ccccc2C(=O)N1Cc1cccs1", "note": "(stereo not drawn)", "hERG current change (%, negative = inhibition) at 1uM": 9.23}
{"compound": "COc1ccccc1/C=C/CN1CCN(c2ccccc2)CC1", "hERG current change (%, negative = inhibition) at 1uM": 8.89}
{"compound": "CN(C)c1ccc(C(c2ccc(N(C)C)cc2)c2ccc([N+](=O)[O-])cc2)cc1", "hERG current change (%, negative = inhibition) at 1uM": 10.9}
{"compound": "CCc1nc(SCC(=O)OC(C)C)c2ccccc2n1", "hERG current change (%, negative = inhibition) at 1uM": 5.06}
{"compound": "COc1cccc(N2CCN(C(=O)c3cc4c(s3)CCCCC4)CC2)c1", "hERG current change (%, negative = inhibition) at 1uM": 4.44}
{"compound": "COC(=O)C1=C(C(=O)OC)[C@@H]2Nc3ccccc3[C@@]23C[C@@H](C(=O)OC)N=C3N1", "hERG current change (%, negative = inhibition) at 1uM": 12.6}
{"compound": "CCCCCCCCCCC(=O)NNC(=O)c1c(O)c2ccccc2n(CC)c1=O", "hERG current change (%, negative = inhibition) at 1uM": 9.95}
{"compound": "CSc1nc(N(C)C)nc(N2CC(=O)N(CCNS(=O)(=O)c3ccc(C)cc3)C2=N)n1", "hERG current change (%, negative = inhibition) at 1uM": 17.6}
{"compound": "CC1CCc2c(sc(NC(=O)CSc3ncnc4c3cnn4-c3ccccc3Cl)c2C#N)C1", "note": "(stereo not drawn)", "hERG current change (%, negative = inhibition) at 1uM": 14.6}
{"compound": "COc1ccccc1N1CSC2=C(C#N)C(c3ccc(SC)cc3)CC(=O)N2C1", "note": "(stereo not drawn)", "hERG current change (%, negative = inhibition) at 1uM": 14.4}
{"compound": "CC(OC(=O)c1cccc(-n2cnnn2)c1)C(=O)Nc1ccc(F)cc1Cl", "note": "(stereo not drawn)", "hERG current change (%, negative = inhibition) at 1uM": -2.17}
{"compound": "COc1ccccc1C(=O)NC(=O)COc1ccc([N+](=O)[O-])cc1", "hERG current change (%, negative = inhibition) at 1uM": 12.8}
{"compound": "Cc1ccc(N(CCC#N)C(=O)CSc2nnc3ccccn23)cc1", "hERG current change (%, negative = inhibition) at 1uM": -0.969}
{"compound": "Cc1ccc(N(CN2C(=O)C3C4CCC(C4)C3C2=O)C(=O)c2ccco2)cc1", "note": "(stereo not drawn)", "hERG current change (%, negative = inhibition) at 1uM": 9.32}
{"compound": "O=C(CSc1n[nH]c(=O)n1-c1cccnc1)Nc1ccccc1Cl", "hERG current change (%, negative = inhibition) at 1uM": 4.27}
{"compound": "COc1ccccc1NC(=O)CC1S/C(=N/N=C2\\CCCc3ccccc32)NC1=O", "note": "(stereo not drawn)", "hERG current change (%, negative = inhibition) at 1uM": -11.2}
{"compound": "C=CCOc1ccccc1CN1CCC(Cc2ccccc2)CC1", "hERG current change (%, negative = inhibition) at 1uM": -51.6}
{"compound": "O=C(CNC(=O)c1ccccc1)NC1(C(=O)NC2CCCCC2)CCCCC1", "hERG current change (%, negative = inhibition) at 1uM": 0.935}
{"compound": "COC(=O)C1C(=O)C2=C(CC1C)NC(C)=C(C(=O)OCCOc1ccccc1)C2c1ccc(C)o1", "note": "(stereo not drawn)", "hERG current change (%, negative = inhibition) at 1uM": 9.19}
{"compound": "Cc1sc2ncnc(SCC(=O)NC3CCCC3)c2c1C", "hERG current change (%, negative = inhibition) at 1uM": 9.15}
{"compound": "Cc1cc(=O)n(CCCO)c(O)c1C#N", "hERG current change (%, negative = inhibition) at 1uM": 12.2}
{"compound": "Cc1ccc(-c2nc3ccccc3c(=O)n2-c2cccnc2)cc1", "hERG current change (%, negative = inhibition) at 1uM": 1.9}
{"compound": "CCOc1ccc(NC(=O)CN(C)c2ccc(S(=O)(=O)N3CCOCC3)cn2)cc1OCC", "hERG current change (%, negative = inhibition) at 1uM": 8.7}
{"compound": "Cc1ccc(NC(C#N)c2ccccc2OCc2ccccc2)cc1", "note": "(stereo not drawn)", "hERG current change (%, negative = inhibition) at 1uM": 2.43}
{"compound": "CS(=O)(=O)Nc1ccc2c(c1)OCC(=O)N2Cc1ccccc1", "hERG current change (%, negative = inhibition) at 1uM": -1.03}
{"compound": "O=C(O)c1cccc(NC(=O)c2cc(S(=O)(=O)N3CCOCC3)cs2)c1", "hERG current change (%, negative = inhibition) at 1uM": 5.77}
{"compound": "CN(C)S(=O)(=O)c1ccc(C(=O)Oc2coc(CSc3ncccn3)cc2=O)cc1", "hERG current change (%, negative = inhibition) at 1uM": 12}
{"compound": "CC(=O)Cc1nsc(NC(=O)c2ccc(COc3ccccc3C)o2)n1", "hERG current change (%, negative = inhibition) at 1uM": 7.7}
{"compound": "COCCN1C(=O)c2ccccc2C(C(=O)N2CCN(c3ccccc3)CC2)C1c1ccc(F)cc1", "note": "(stereo not drawn)", "hERG current change (%, negative = inhibition) at 1uM": 12.5}
{"compound": "O=C(O)CCCN=CC1=C(O)C(C(=O)c2ccccc2)CCC1=O", "note": "(stereo not drawn)", "hERG current change (%, negative = inhibition) at 1uM": 10.6}
{"compound": "COc1ccc(N=Nc2c(-c3ccc(OC)cc3)[nH]oc2=O)cc1", "hERG current change (%, negative = inhibition) at 1uM": 9.47}
{"compound": "COC(=O)c1ccc2c(=O)n(CCN3CCOCC3)c(SCC(=O)Nc3ccc(C)cc3)nc2c1", "hERG current change (%, negative = inhibition) at 1uM": -22.2}
{"compound": "Cc1ccc(OCc2cc(C(=O)N(C)Cc3cnn(-c4ccccc4C)c3)no2)cn1", "hERG current change (%, negative = inhibition) at 1uM": -16}
{"compound": "Cc1cc(C(=O)NC(=S)Nc2ccccc2N2CCOCC2)ccc1[N+](=O)[O-]", "hERG current change (%, negative = inhibition) at 1uM": 10}
{"compound": "CCCN(C(=O)c1cc2c(s1)CCC2)c1c(N)n(Cc2ccccc2)c(=O)[nH]c1=O", "hERG current change (%, negative = inhibition) at 1uM": 13.3}
